Test results as given in the supplement of paper PMC5895741.

B1: MS2 coat protein; the commonest letter at each place (parent)
chain: MASNFTQFVLVDNGGTGDVTVAPSNFANGVAEWISSNSRSQAYKVTCSVRQSSAQNRKYTIKVEVPKVATQTVGGVELPVAAWRSYLNMELTIPIFATNSDCELIVKAMQGLLKDGNPIPSAIAANSGIY
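Also: counts from Illumina MiSeq reads, cDNA of packaged RNA versus plasmid DNA taken before selection, each replicate independent from library construction onward, expression induced with 0.1% arabinose.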

Variants of: B1
Assay: apparent fitness score (VLP assembly selection enrichment vs plasmid library) (log10 ratio); higher = better expression / assembly into well-formed VLPs
Method: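 SyMAPS: NNK codon saturation mutagenesis of every codon of the MS2 bacteriophage coat protein (EMPIRIC cloning), expressed overnight in E. coli DH10B at 37 °C. Assembled VLPs were selected by ammonium sulfate precipitation plus FPLC size-exclusion chromatography, and the encapsidated RNA was sequenced. Apparent fitness score = log10 of the mean over 3 biological replicates of (percent abundance in the VLP library / percent abundance in the plasmid library). Variants absent after selection were set to 0.0001, i.e. -4.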
For MASNFTQFVLVDNGGTGDVTVAPSNFANGVAEWISSNSRSQAYMVTCSVRQSSAQNRKYTIKVEVPKVATQTVGGVELPVAAWRSYLNMELTIPIFATNSDCELIVKAMQGLLKDGNPIPSAIAANSGIY [K44M], the “apparent fitness score (log10)” value was -0.632.
For MASNFTQFVLVDNGGTGDVTVAPSNFANGVAEWISSNSRSQAYNVTCSVRQSSAQNRKYTIKVEVPKVATQTVGGVELPVAAWRSYLNMELTIPIFATNSDCELIVKAMQGLLKDGNPIPSAIAANSGIY [K44N], the “apparent fitness score (log10)” value was under -4.
For MASNFTQFVLVDNGGTGDVTVAPSNFANGVAEWISSNSRSQAYPVTCSVRQSSAQNRKYTIKVEVPKVATQTVGGVELPVAAWRSYLNMELTIPIFATNSDCELIVKAMQGLLKDGNPIPSAIAANSGIY [K44P], the “apparent fitness score (log10)” value was under -4.
In the case of MASNFTQFVLVDNGGTGDVTVAPSNFANGVAEWISSNSRSQAYQVTCSVRQSSAQNRKYTIKVEVPKVATQTVGGVELPVAAWRSYLNMELTIPIFATNSDCELIVKAMQGLLKDGNPIPSAIAANSGIY [K44Q], the “apparent fitness score (log10)” value is reported as -1.07.
For MASNFTQFVLVDNGGTGDVTVAPSNFANGVAEWISSNSRSQAYRVTCSVRQSSAQNRKYTIKVEVPKVATQTVGGVELPVAAWRSYLNMELTIPIFATNSDCELIVKAMQGLLKDGNPIPSAIAANSGIY [K44R], the “apparent fitness score (log10)” value was -0.195.
In the case of MASNFTQFVLVDNGGTGDVTVAPSNFANGVAEWISSNSRSQAYSVTCSVRQSSAQNRKYTIKVEVPKVATQTVGGVELPVAAWRSYLNMELTIPIFATNSDCELIVKAMQGLLKDGNPIPSAIAANSGIY [K44S], the “apparent fitness score (log10)” value is reported as -1.03.
With MASNFTQFVLVDNGGTGDVTVAPSNFANGVAEWISSNSRSQAYTVTCSVRQSSAQNRKYTIKVEVPKVATQTVGGVELPVAAWRSYLNMELTIPIFATNSDCELIVKAMQGLLKDGNPIPSAIAANSGIY [K44T] the “apparent fitness score (log10)” value was -0.378.
For MASNFTQFVLVDNGGTGDVTVAPSNFANGVAEWISSNSRSQAYVVTCSVRQSSAQNRKYTIKVEVPKVATQTVGGVELPVAAWRSYLNMELTIPIFATNSDCELIVKAMQGLLKDGNPIPSAIAANSGIY [K44V], the “apparent fitness score (log10)” value was -0.038.
With MASNFTQFVLVDNGGTGDVTVAPSNFANGVAEWISSNSRSQAYWVTCSVRQSSAQNRKYTIKVEVPKVATQTVGGVELPVAAWRSYLNMELTIPIFATNSDCELIVKAMQGLLKDGNPIPSAIAANSGIY [K44W] the “apparent fitness score (log10)” value was under -4.
With MASNFTQFVLVDNGGTGDVTVAPSNFANGVAEWISSNSRSQAYYVTCSVRQSSAQNRKYTIKVEVPKVATQTVGGVELPVAAWRSYLNMELTIPIFATNSDCELIVKAMQGLLKDGNPIPSAIAANSGIY [K44Y] the “apparent fitness score (log10)” value was 0.429.
For MASNFTQFVLVDNGGTGDVTVAPSNFANGVAEWISSNSRSQAYKATCSVRQSSAQNRKYTIKVEVPKVATQTVGGVELPVAAWRSYLNMELTIPIFATNSDCELIVKAMQGLLKDGNPIPSAIAANSGIY [V45A], the “apparent fitness score (log10)” value was under -4.
With MASNFTQFVLVDNGGTGDVTVAPSNFANGVAEWISSNSRSQAYKCTCSVRQSSAQNRKYTIKVEVPKVATQTVGGVELPVAAWRSYLNMELTIPIFATNSDCELIVKAMQGLLKDGNPIPSAIAANSGIY [V45C] the “apparent fitness score (log10)” value was 0.0122.
For MASNFTQFVLVDNGGTGDVTVAPSNFANGVAEWISSNSRSQAYKDTCSVRQSSAQNRKYTIKVEVPKVATQTVGGVELPVAAWRSYLNMELTIPIFATNSDCELIVKAMQGLLKDGNPIPSAIAANSGIY [V45D], the “apparent fitness score (log10)” value was under -4.
With MASNFTQFVLVDNGGTGDVTVAPSNFANGVAEWISSNSRSQAYKETCSVRQSSAQNRKYTIKVEVPKVATQTVGGVELPVAAWRSYLNMELTIPIFATNSDCELIVKAMQGLLKDGNPIPSAIAANSGIY [V45E] the “apparent fitness score (log10)” value was under -4.
With MASNFTQFVLVDNGGTGDVTVAPSNFANGVAEWISSNSRSQAYKFTCSVRQSSAQNRKYTIKVEVPKVATQTVGGVELPVAAWRSYLNMELTIPIFATNSDCELIVKAMQGLLKDGNPIPSAIAANSGIY [V45F] the “apparent fitness score (log10)” value was under -4.
For MASNFTQFVLVDNGGTGDVTVAPSNFANGVAEWISSNSRSQAYKGTCSVRQSSAQNRKYTIKVEVPKVATQTVGGVELPVAAWRSYLNMELTIPIFATNSDCELIVKAMQGLLKDGNPIPSAIAANSGIY [V45G], the “apparent fitness score (log10)” value was under -4.
For MASNFTQFVLVDNGGTGDVTVAPSNFANGVAEWISSNSRSQAYKHTCSVRQSSAQNRKYTIKVEVPKVATQTVGGVELPVAAWRSYLNMELTIPIFATNSDCELIVKAMQGLLKDGNPIPSAIAANSGIY [V45H], the “apparent fitness score (log10)” value was under -4.
In the case of MASNFTQFVLVDNGGTGDVTVAPSNFANGVAEWISSNSRSQAYKITCSVRQSSAQNRKYTIKVEVPKVATQTVGGVELPVAAWRSYLNMELTIPIFATNSDCELIVKAMQGLLKDGNPIPSAIAANSGIY [V45I], the “apparent fitness score (log10)” value is reported as under -4.
With MASNFTQFVLVDNGGTGDVTVAPSNFANGVAEWISSNSRSQAYKKTCSVRQSSAQNRKYTIKVEVPKVATQTVGGVELPVAAWRSYLNMELTIPIFATNSDCELIVKAMQGLLKDGNPIPSAIAANSGIY [V45K] the “apparent fitness score (log10)” value was under -4.
In the case of MASNFTQFVLVDNGGTGDVTVAPSNFANGVAEWISSNSRSQAYKLTCSVRQSSAQNRKYTIKVEVPKVATQTVGGVELPVAAWRSYLNMELTIPIFATNSDCELIVKAMQGLLKDGNPIPSAIAANSGIY [V45L], the “apparent fitness score (log10)” value is reported as under -4.
For MASNFTQFVLVDNGGTGDVTVAPSNFANGVAEWISSNSRSQAYKMTCSVRQSSAQNRKYTIKVEVPKVATQTVGGVELPVAAWRSYLNMELTIPIFATNSDCELIVKAMQGLLKDGNPIPSAIAANSGIY [V45M], the “apparent fitness score (log10)” value was -0.721.
In the case of MASNFTQFVLVDNGGTGDVTVAPSNFANGVAEWISSNSRSQAYKNTCSVRQSSAQNRKYTIKVEVPKVATQTVGGVELPVAAWRSYLNMELTIPIFATNSDCELIVKAMQGLLKDGNPIPSAIAANSGIY [V45N], the “apparent fitness score (log10)” value is reported as under -4.
